Assay results published in PubChem BioAssay AID485344 (National Center for Advancing Translational Sciences (NCATS), 2010).
The campaign covered roughly 340,000 compounds. About 6,900 (2%) were called active. Cut-off read from the data, not from the text of the source: active = inhibition above about 30%; inactive = below that, where a call was filed. This is a selection; strong and weak results do not stand in their true shares. Entries without a call were filed so in the source.
Note: 0% is about no effect.

The compounds below were run against D(2) dopamine receptor (Homo sapiens) (UniProt P14416) (assay: HTS Assay for Allosteric Antagonists of the Human D2 Dopamine Receptor: Primary Screen for Antagonists). Conditions: HEK293 TREx D2 cells, calcium flux, dopamine EC80; at 10 µM; stronger effect = higher value.
Chain of UniProt P14416 (P14416 whole entry, looked up): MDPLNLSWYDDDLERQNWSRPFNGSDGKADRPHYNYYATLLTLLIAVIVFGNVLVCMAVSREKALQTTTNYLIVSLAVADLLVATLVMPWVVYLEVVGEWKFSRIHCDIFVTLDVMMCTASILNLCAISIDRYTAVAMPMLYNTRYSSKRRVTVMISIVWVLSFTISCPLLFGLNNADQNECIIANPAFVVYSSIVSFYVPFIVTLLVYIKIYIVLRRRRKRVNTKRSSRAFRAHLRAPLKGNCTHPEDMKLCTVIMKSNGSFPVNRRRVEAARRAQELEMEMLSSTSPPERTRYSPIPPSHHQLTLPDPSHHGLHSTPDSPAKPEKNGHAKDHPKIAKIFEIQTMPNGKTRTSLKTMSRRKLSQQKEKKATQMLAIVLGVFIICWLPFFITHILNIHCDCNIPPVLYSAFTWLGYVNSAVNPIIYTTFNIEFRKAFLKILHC
Outline: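 Calcium flux kinetic readout in an inducible HEK293 TREx D2 line plated overnight at 30 C. After 180 s compound exposure, an EC80 dopamine challenge follows with another 180 s kinetic read to detect antagonism.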
COc1ccc(OC)c(S(=O)(=O)Nc2cccc(-c3ccc(N4CCCCC4)nn3)c2)c1 showed an inhibition of 6.63%.
CC(C)(C)c1ccc(C(=O)Nc2onc3c2CCCC3)cc1 was tested, and the inhibition was 9.36%.
With CCN(CC)c1ccc(/C=C/C(=O)C2C(=O)C=C(C)OC2=O)cc1 (stereo unspecified) the inhibition was active: 50.3%.
Work on Cc1sc(-c2cc3c([nH]c2=O)CC(c2ccccc2)CC3=O)nc1-c1ccc(Cl)cc1 (stereo unspecified) yielded an inhibition of -1.87%.
With Cc1c(C(=O)N2CCOCC2)oc2c1-c1nn(CC(=O)NCc3cccc(Cl)c3)cc1CC2 the inhibition was 17.1%.
For COc1ccc(CCNC(=S)NC2CCN(Cc3ccccc3)CC2)cc1OC, the inhibition was active: 31.6%.
CCCCS(=O)(=O)c1oc(-c2ccc(F)cc2)nc1S(=O)(=O)c1ccc(C)cc1 was tested, and the inhibition was -4.04%.
O=C(NCc1cccc(F)c1)c1ccc(NC(=O)c2nsc3ccccc23)cc1 gave an inhibition of -14.7%.
COc1ccc(-c2c(C)c3ccc(O)c(CN4CCN(CCO)CC4)c3oc2=O)cc1OC showed an inhibition of -1%.
Compound Cc1ccc(CCNC(=O)c2c(C)oc3ncn(CC(C)C)c(=O)c23)cc1 has an inhibition of 0.195%.
Compound CC(C)(C)OC(=O)N1CCC(c2c(C(=O)NCCc3ccccc3)cnn2-c2ccc(F)cc2F)CC1 has an inhibition of -5.8%.
Work on COc1cc(Cl)c(C)cc1NC(=O)CC(c1ccc(F)cc1)N1Cc2ccccc2C1=O (stereo unspecified) yielded an inhibition of 5.81%.
Cn1c(=O)oc2cc(S(=O)(=O)N3CCC(C(=O)N4CCN(c5ccccc5F)CC4)CC3)ccc21 gave an inhibition of 3.1%.
CCOC(=O)c1c(NC(=O)COc2cccc(C)c2C)sc2c1CCC(CC)C2 (stereo unspecified) was tested, and the inhibition was -1.11%.
In the case of Cc1ccc(/C=C/C(=O)Nc2ccccc2C(N)=O)o1, the inhibition is reported as 0.175%.
COc1cccc(CNC(=O)c2cc(Sc3cccc(Cl)c3)nc3ccccc23)c1 showed an inhibition of 6.19%.
In the case of COc1ccccc1NC(=O)COc1ccc(-c2nn(C)c(=O)c3ccccc23)cc1, the inhibition is reported as 2.14%.
CC(=O)N1c2ccc(S(=O)(=O)Nc3ccc(Cl)cc3C)cc2CC1C (stereo unspecified) was tested, and the inhibition was 18.6%.
For NC(=O)CSc1nc2ccccc2c(=O)n1-c1ccccc1, the inhibition was active: 41.1%.
CC1CC(C)CN(CCCNC(=O)CN2C(=O)CSc3ccc(S(=O)(=O)N4CCOCC4)cc32)C1 (stereo unspecified) was tested, and the inhibition was active: 40.2%.
Work on COc1ccc(N(CC(=O)N2CCN(c3ccc(F)cc3)CC2)S(=O)(=O)c2c(C)noc2C)cc1 yielded an inhibition of -3.37%.
For CN1\C(=C/C=C/C=C/C=[N+](C)C)C(C)(C)c2ccccc21, the inhibition was active: 63%.
Work on O=C(NCc1ccco1)c1ccc2c(c1)N(Cc1ccc(F)cc1)C(=O)c1ccccc1S2(=O)=O yielded an inhibition of -7.21%.
With CC(C)(C)c1cc(C(F)(F)F)nc(SCCCNC(=O)c2ccco2)n1 the inhibition was active: 35.6%.
For CC(=O)c1ccc(NC(=O)CN2CCN(c3ncccn3)CC2)cc1, the inhibition was active: 77.4%.
With Cc1ccc(-c2nn(-c3ccccc3Cl)cc2C(=O)NCC2CCCO2)cc1 (stereo unspecified) the inhibition was active: 30.9%.
COc1cccc(N2CCN(S(=O)(=O)c3cc(-c4cc(C)no4)ccc3C)CC2)c1 was tested, and the inhibition was 5.33%.
In the case of CC(C)COc1ccc(C(=O)Nc2cc(-c3ccccc3)no2)cc1, the inhibition is reported as 0.711%.
For O=c1c2cn[nH]c2nc(SCc2c(F)cccc2F)n1-c1ccc(Cl)cc1, the inhibition was -15.7%.
Compound CCCCN(CC)CCCNC(=O)Cn1ncc2c([nH]c3ccc(C)cc32)c1=O has an inhibition of 17%.
Cc1cc(NC(=O)CN2CCC(C)CC2)nc2c1c(=O)oc1ccccc12 was tested, and the inhibition was 7.34%.
Compound CCOC(=O)C(Cc1c[nH]c2ccccc12)NC(=O)COc1ccc(CC)cc1 (stereo unspecified) has an inhibition of 1.89%.
Work on Cc1ccc(Cl)cc1NC(=O)CN1C(=O)CCc2ccccc21 yielded an inhibition of -4.09%.
Compound CCCCNc1oc(-c2ccc(COc3ccc(OC)cc3)o2)nc1C#N has an inhibition of 3.22%.
Work on COc1ccc(C)cc1N(C)C(=O)CCc1nc(-c2ccccc2F)no1 yielded an inhibition of 9.76%.
CCOC(=O)c1c(C)[nH]c(C)c1S(=O)(=O)N1CCC(C(=O)NCc2ccccc2Cl)CC1 showed an inhibition of -7.82%.
In the case of CN(C)c1ccc(Nc2ncnc3sc4c(c23)CCCC4)cc1, the inhibition is reported as -10.3%.
With COC(=O)c1ccccc1NC(=O)CCCn1c(=O)c2cccn2c2cccnc21 the inhibition was 7.23%.
COc1ccc(CC(=O)NCc2nc3cccnc3n2Cc2ccccc2)cc1 was tested, and the inhibition was 1.53%.
For COc1ccc(CCNC(=O)c2c(C)oc3ncn(C)c(=O)c23)c(OC)c1, the inhibition was 1.18%.
CC(=O)Nc1ccc(N(C(=O)Cn2nnc3ccccc32)C(C(=O)NCc2ccccc2)c2ccc(C)cc2)cc1 (stereo unspecified) gave an inhibition of 16.7%.
For Cc1ccc2[nH]c(=O)c3cc(C(=O)NCCCN4CCC(C)CC4)sc3c2c1, the inhibition was 16.6%.
With CCN(C(=O)CSc1nc2ccccc2n1Cc1ccc(F)cc1Cl)c1ccccc1 the inhibition was -0.279%.
O=C(Cn1ncn2c(cc3ccccc32)c1=O)NCc1ccc(F)cc1 gave an inhibition of 3.44%.
In the case of COc1ccc(F)cc1S(=O)(=O)Nc1cccc(-c2ccc(N3CCC(C)CC3)nn2)c1, the inhibition is reported as 5.23%.
Work on Cc1ccc(-c2cc(-c3ccccc3)c(C#N)c(SCC(O)CS(=O)(=O)Cc3ccccc3)n2)cc1 (stereo unspecified) yielded an inhibition of -15.1%.
CC(=C1C(=O)c2ccccc2C1=O)N1CCN(c2ccccn2)CC1 was tested, and the inhibition was active: 56.1%.
In the case of COc1ccc(Nc2ncnc3c2nc2n3CCCCC2)cc1, the inhibition is reported as 10%.
CCCOc1ccc(CNC(=O)c2[nH]c3cc(OC)ccc3c2Sc2ccccc2)cc1 was tested, and the inhibition was 10.2%.
With Cc1noc(/C=C/c2ccccc2F)c1S(=O)(=O)N1CCC(C(=O)N2CCOc3ccccc32)CC1 the inhibition was -15.8%.
CCc1ccc(NC(=O)Cn2c(=O)n(CCC(=O)NCCc3ccc(Cl)cc3)c(=O)c3ccccc32)cc1 was tested, and the inhibition was -6.08%.
In the case of COc1ccc(C)cc1NC(=O)Nc1cccc(-c2noc(C)n2)c1, the inhibition is reported as 23.8%.
In the case of COc1ccccc1CCNC(=O)C(C)Sc1nc(-c2ccccc2)cc(C(F)(F)F)n1 (stereo unspecified), the inhibition is reported as -2.37%.
Compound COc1ccc(C(=O)Nc2nc(-c3nnn(-c4ccc(C(C)C)cc4)c3C)ns2)cc1 has an inhibition of 12.9%.
CC(C)C(=O)NC(=S)Nc1ccc(S(=O)(=O)Nc2nccs2)cc1 was tested, and the inhibition was active: 39%.
Compound CC(=O)c1cccc(NS(=O)(=O)c2cc3c(cc2C)n(C)c(=O)c(=O)n3C)c1 has an inhibition of 2.76%.
Work on Cc1cccc(NC(=O)C(=O)NCC(c2ccc3c(c2)OCO3)N2CCN(c3ccccc3)CC2)c1 (stereo unspecified) yielded an inhibition of -10.3%.
With O=C(Nc1sc2c(c1C(=O)Nc1ccccc1)CCC2)c1ccc(Br)cc1 the inhibition was 11.6%.
CCOCCCNC(=O)C(c1ccccc1)N1Cc2ccccc2C1=O (stereo unspecified) was tested, and the inhibition was -3.69%.
With COc1ccc(S(=O)(=O)Nc2ccc(S(=O)(=O)Nc3nccs3)cc2)cc1 the inhibition was active: 49.6%.
For O=C1C2CCCN2C(=O)N1CCCCN1CCN(c2ccc(F)cc2)CC1 (stereo unspecified), the inhibition was active: 39.6%.
